Experimental data as given in the supplement of paper PMC10498489.
In all, about 2,300 compounds went through this assay and about 330 (14%) showed activity.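 Rule for the calls: active = median modified Z-score above 1.96; inactive = 1.96 or below.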 The entries are a selection whose mix differs from that of the whole data set.

Tested on: HepG2 Srxn1-GFP reporter cells (+30 nM CDDO-Me)
Experiment: Srxn1-GFP intensity median modified Z-score relative to plate median; higher = stronger NRF2 / oxidative stress reporter activation, active = hit call of the paper
Settings: 10 µM; exposure time: 24h
How it was run: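 Per-cell cytoplasmic GFP was measured on confocal images of formaldehyde-fixed, Hoechst-stained HepG2 Srxn1-GFP BAC reporter cells, excluding images with fewer than 100 cells. Before this, the cells (20,000 per well, 96-well plates) were co-exposed for 24 h to compound at 10 μM and an NRF2 activator at 30 nM with ≤0.1% DMSO, in three replicate plates. Each value is the median over replicates of the per-plate modified Z-score of GFP intensity. That score was scaled with 1.4826 × median absolute deviation.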

SMILES | Srxn1-GFP intensity median modified Z-score
O=C(O)c1ccc[n+]([O-])c1 [euspeclibcmpd1240] | inactive: -0.339
CCOC(=O)C(CCc1ccccc1)NC(C)C(=O)N1C(C(=O)O)C[C@@H]2CCC[C@@H]21 (stereo partly drawn) [euspeclibcmpd722] | inactive: -0.468
CC(=O)C1CCC2C3CC=C4CC(=O)CC[C@]4(C)C3CC[C@]12C (stereo partly drawn) [euspeclibcmpd251] | active: 2.27
O=C(O)C1=CC(=C(c2ccc(O)c(C(=O)O)c2)c2ccc(O)c(C(=O)O)c2)C=CC1=O [euspeclibcmpd1741] | inactive: -0.835
N#Cc1ccc(C(=O)NCCCCN2CCOCC2)cc1 | inactive: 0.374
CN(C(=O)CN(CCO)CC(=O)N(C)C(C)(C)Cc1ccccc1)C(C)(C)Cc1ccccc1 [euspeclibcmpd569] | inactive: -1.21
CCCCCCNC(=O)n1cc(F)c(=O)[nH]c1=O [euspeclibcmpd1269] | inactive: 1.94
CON=C(C(=O)NC1C(=O)N2C(C(=O)O)=C(C[N+]3(C)CCCC3)CSC12)c1csc(=N)[nH]1 (stereo not drawn) [euspeclibcmpd504] | active: 35.8
COc1ccc(Cl)cc1C(=O)NCCc1ccc(S(=O)(=O)NC(=O)NC2CCCCC2)cc1 [euspeclibcmpd1303] | inactive: -0.77
COC(=O)C[C@H]1C2(C)CC34OC5(C)O[C@@]6([C@H](OC(C)=O)C(OC(C)=O)[C@]7(C)C(C(C(=O)C(C)C)C(=O)O[C@H]7c7ccoc7)[C@@]6(O5)[C@H](OC(C)=O)[C@@]3(O)C2OC(=O)C(C)C)[C@]14C (stereo partly drawn) [euspeclibcmpd1593] | inactive: 0.648
CC(C)Oc1ccc2c(=O)c(-c3ccccc3)coc2c1 [euspeclibcmpd1027] | inactive: 0.067
CC(=O)Nc1c(I)cc(I)c(C(=O)O)c1I [euspeclibcmpd651] | inactive: -0.413
Cc1cc2cc3c(C)cc(=O)oc3c(C)c2o1 [euspeclibcmpd311] | inactive: -0.0285
COC(=O)c1c(OC)cc2c(c1C)Oc1c(Cl)c(O)c(Cl)c(C)c1C(=O)O2 [euspeclibcmpd1672] | inactive: 0.324
O=C(NCCCN1CCOCC1)c1ccc(Cl)cc1 [euspeclibcmpd2351] | inactive: 0.24
COc1cc(CNC(=O)CCCC/C=C/C(C)C)ccc1O [euspeclibcmpd388] | inactive: 0.638
CC1(C)SC2C(NC(=O)COc3ccccc3)C(=O)N2C1C(=O)O (stereo not drawn) [euspeclibcmpd2314] | inactive: 0.0167
CCC(N)C12CC3CC(CC(C3)C1)C2 (stereo not drawn) | inactive: 0.333
CN[C@H]1CC[C@@H](c2ccc(Cl)c(Cl)c2)c2ccccc21 [euspeclibcmpd730] | inactive: -0.98
Cc1cc[nH]c(=NS(=O)(=O)c2ccc(N)cc2)n1 [euspeclibcmpd275] | inactive: -0.506
COC(=O)N=c1[nH]c2ccc(C(=O)c3ccccc3)cc2[nH]1 [euspeclibcmpd378] | active: 19.3
CCC(=O)OCC(=O)C1(OC(=O)CC)C(C)CC2C3C(Cl)C=C4CC(=O)C=CC4(C)C3C(O)CC21C (stereo not drawn) [euspeclibcmpd1830] | inactive: -0.727
CCCCCCOc1ccccc1C(N)=O [euspeclibcmpd1139] | inactive: 0.59
COc1cccc2c(O)c3c(O)c4c(c(O)c3c(O)c12)=C(O[C@H]1C[C@H](N)[C@H](O)[C@H](C)O1)C[C@](O)(C(C)=O)C=4 [euspeclibcmpd83] | inactive: 0.648
NC[C@H](O)c1ccc(O)c(O)c1 [euspeclibcmpd212] | inactive: -0.909

SMILES | Srxn1-GFP intensity median modified Z-score
CCN(CC)CCNC(=O)c1ccc(N)cc1 [euspeclibcmpd247] | inactive: -0.33
COc1ccc(-c2cc(=O)c3c(OC)c(OC)c(OC)c(OC)c3o2)cc1OC [euspeclibcmpd1435] | inactive: 1.9
O=c1cc[nH]c(=O)[nH]1 [euspeclibcmpd476] | inactive: -0.4
C=C1C(N)CC2CC1C2(C)C (stereo not drawn) [euspeclibcmpd1932] | inactive: -0.42
CCCCC(CC)COc1ccc(-c2nc(-c3ccc(OC)cc3)nc(-c3ccc(OCC(CC)CCCC)cc3O)n2)c(O)c1 (stereo not drawn) [euspeclibcmpd711] | inactive: -0.225
COc1ccc(-c2cc(=O)c3c(OC)c(OC)c(OC)c(OC)c3o2)cc1 [euspeclibcmpd1464] | active: 6.78
NC[C@H]1O[C@H](OC2[C@@H](N)C[C@@H](N)[C@H](O[C@H]3O[C@H](CO)[C@@H](O)[C@H](N)[C@H]3O)[C@H]2O)[C@H](O)[C@@H](O)[C@@H]1O (stereo partly drawn) [euspeclibcmpd168] | inactive: -0.199
CN1CCN(C(=O)Oc2c3nccnc3c(O)n2-c2ccc(Cl)cn2)CC1 [euspeclibcmpd2130] | inactive: -0.245
CC12CC3CC(C)(C1)CC(N)(C3)C2 [euspeclibcmpd384] | inactive: -0.12
CC(C)=CCCC(C)[C@@H]1CC[C@]2(C)C3=C(CC[C@@]12C)C1(C)CC[C@H](O)C(C)(C)C1CC3 (stereo partly drawn) [euspeclibcmpd2235] | active: 2.85
CCOc1ccc(Cc2nccc3cc(OCC)c(OCC)cc23)cc1OCC [euspeclibcmpd1056] | inactive: -1.25
O=C(Nc1ccc([N+](=O)[O-])cc1Cl)c1cc(Cl)ccc1O [euspeclibcmpd562] | active: 2.35
CS(C)(=O)=O [euspeclibcmpd1496] | active: 20.2
Cc1cccc(N(C)C(=S)Oc2ccc3ccccc3c2)c1 [euspeclibcmpd299] | active: 8.23
CCN1CCCC1CNC(=O)c1cc(S(N)(=O)=O)ccc1OC (stereo not drawn) [euspeclibcmpd403] | inactive: 0.263
Cc1ccc2[nH]c3c(c2c1)CC(Nc1ccc(CCC(=O)N2CCCC2)cc1)CC3 (stereo not drawn) | active: 4.66
NNC(=O)c1ccncc1 [euspeclibcmpd163] | inactive: 0.00123
C/C(=C(/CCOP(=O)(O)O)SC(=O)c1ccccc1)N(C=O)Cc1c[nH]c(C)nc1=N [euspeclibcmpd1052] | inactive: 1.09
O[C@@H]1[C@@H](O)[C@@H](O)OC[C@H]1O | inactive: 0.871
Cc1cc(C)cc(-c2nnc(SCc3csc(Nc4ccccc4)n3)o2)c1 | inactive: 0.289
CC1(C)CC2C1CCC1(C)OC1CCC2(C)O (stereo not drawn) [euspeclibcmpd1488] | inactive: -0.0812
CC1=CCc2c(cc3oc(C)cc(=O)c3c2O)OC1 [euspeclibcmpd1616] | inactive: 1.89
Cc1[nH]c(C)c(Cl)c(=O)c1Cl [euspeclibcmpd744] | active: 6.67
CN(Cc1cc(Br)cc(Br)c1N)C1CCCCC1 [euspeclibcmpd529] | inactive: -0.0923
COC(=O)[C@@]1(C)CCC[C@]2(C)c3ccc(O)c(C(C)C)c3CCC12 (stereo partly drawn) [euspeclibcmpd1676] | inactive: 1.46

SMILES | Srxn1-GFP intensity median modified Z-score
OC(CCN1CCCC1)(c1ccccc1)C1CCCCC1 (stereo not drawn) [euspeclibcmpd250] | inactive: 1.63
CC(C)NCC(O)COc1cccc2[nH]ccc12 (stereo not drawn) [euspeclibcmpd237] | inactive: -0.415
CC1=C(/C=C/C(C)=C/C=C/C(C)=C/C=C/C=C(C)/C=C/C=C(C)/C=C/C(=O)[C@]2(C)C[C@@H](O)CC2(C)C)C(C)(C)C[C@H](O)C1 [euspeclibcmpd1726] | inactive: -0.348
CC(C)(C)CC(C)(C)c1ccc(OCCOCC[N+](C)(C)Cc2ccccc2)cc1 [euspeclibcmpd33] | active: 9.81
Cn1nnc2c(C(N)=O)ncn2c1=O [euspeclibcmpd925] | inactive: 0.0618
COc1cccc(O)c1O [euspeclibcmpd1624] | active: 10.7
CCCCOc1ccc(C(=O)CCN2CCCCC2)cc1 [euspeclibcmpd107] | active: 3.53
C[C@H]1[C@H](OC(=O)CCC(=O)O)O[C@@H]2O[C@]3(C)CC[C@H]4[C@H](C)CC[C@@H]1[C@@]24OO3 [euspeclibcmpd985] | active: 11
CN(C)CCOC(=O)C(c1ccccc1)C1(O)CCCC1 (stereo not drawn) [euspeclibcmpd78] | inactive: -0.348
O=C(/C=C/c1ccccc1)c1ccc(O)cc1 | active: 4.36
O=C(/C=C/c1ccccc1)c1ccc(O)cc1 [euspeclibcmpd1718] | active: 12.6
O=C(O)c1ccc2c(c1)OCO2 [euspeclibcmpd1566] | inactive: -0.239
Nc1ccc(C(=O)O)c(O)c1 | inactive: 0.389
Nc1ccc(C(=O)O)c(O)c1 [euspeclibcmpd2218] | inactive: 0.181
Nc1ccc(C(=O)O)c(O)c1 [euspeclibcmpd1137] | inactive: 0.238
CC(=O)Nc1ccc(S(=O)(=O)c2ccc(NC(C)=O)cc2)cc1 [euspeclibcmpd761] | inactive: -0.252
O=C(O)c1ccccc1Nc1cccc(C(F)(F)F)c1 [euspeclibcmpd370] | active: 2.94
CC(O)(CC(=O)O)CC(=O)O [euspeclibcmpd934] | inactive: -0.263
CCOC(=O)CC(=O)N1CCSC1COc1ccccc1OC (stereo not drawn) [euspeclibcmpd1082] | inactive: 1.48
CC(=O)Oc1ccc(C(c2ccc(OC(C)=O)cc2)c2ccccn2)cc1 [euspeclibcmpd38] | inactive: 0.0227
COc1ccc(C2Sc3ccccc3N(CCN(C)C)C(=O)C2OC(C)=O)cc1 (stereo not drawn) [euspeclibcmpd952] | inactive: 0.263
CCC(C)(C)C(=O)O[C@H]1C[C@@H](C)C=C2C=C[C@H](C)[C@H](CC[C@@H]3C[C@@H](O)CC(=O)O3)[C@H]21 [euspeclibcmpd671] | inactive: -0.935
CCCCS(=N)(=O)CCC(N)C(=O)O (stereo not drawn) [euspeclibcmpd1774] | inactive: -0.55
